{
  "source": "patent US20240425574A1",
  "about": "“ANTI-PDGF-B ANTIBODIES AND PHARMACEUTICAL COMPOSITION THEREOF” (Regeneron Pharmaceuticals, Inc., priority 2021, published 2024)",
  "molecules": {"B1": {"name": "H4H13145P: fully human anti-PDGF-B mAb, human IgG4 Fc; HCVR/LCVR SEQ ID NOs: 2/10, HC/LC 18/20 (antibody)", "heavy": "QVQLVQSGTEVKKPGASVKVSCKASGYTYGAYAISWVRQAPGQGLEWMGWISAYNGNTNYAQKFQDRVTMTTDTSTNTAYMELRGLKSDDTAVYFCARAWNSFDYWGQGTLVTVSSASTKGPSVFPLAPCSRSTSESTAALGCLVKDYFPEPVTVSWNSGALTSGVHTFPAVLQSSGLYSLSSVVTVPSSSLGTKTYTCNVDHKPSNTKVDKRV[human IgG4 Fc with S228P (EU numbers) left out here]", "light": "DIQMTQSPSSLSASVGDRVTITCQASQDIRKNLNWYQQKPGKAPKLLISDASTLETGVPSRFSGSGSGTDFTFTISSLQPEDIAKYYCQQYYNLPFTFGPGTKVDIKRTVAAPSVFIFPPSDEQLKSGTASVVCLLNNFYPREAKVQWKVDNALQSGNSQESVTEQDSKDSTYSLSSTLTLSKADYEKHKVYACEVTHQGLSSPVTKSFNRGEC"}},
  "key": {"[1]": {"test_system": "monocrotaline rats", "assay": "Study #2, 5 weeks Monocrotaline severe PAH rats survival (Example 19)", "format": "in vivo, rat", "description": "In order to evaluate the effect of two inhibitory anti-PDGF-B antibodies in the rat monocrotaline model of pulmonary arterial hypertension, 2 studies were performed: study #1 was performed on 4-week Monocrotaline PAH Rats with Preventive Drug Treatment; and study #2 was performed on 5-weeks Monocrotaline Severe PAH Rats Survival with Therapeutic Drug Treatment (Tables 26-27).\nSix to seven weeks old male Sprague Dawley rats were used. Rats were separated into treatment groups such that body weights were similar among different groups. […] On day one, rats were subcutaneously administered either 40 mg/kg of monocrotaline or 5 mL/kg or saline as control. On day 28, right ventricular systolic pressure (RVSP) was measured by right heart catheterization and RV hypertrophy was calculated by Fulton index as the weight ratio of RV to (LV+septum). In study #2, rats were subcutaneously administered either 60 mg/kg of monocrotaline or 5 mL/kg of saline. […] Small molecule group was orally administered macitentan at 30 mg/kg daily. Body weight change from day 0-35 were used for general toxicity assessment and animal mortality and median survival time were calculated by day 35."}, "[2]": {"test_system": "monocrotaline rats", "assay": "4 weeks Monocrotaline PAH rats, preventive treatment (Example 10 study 1)", "format": "in vivo, rat", "description": "Six to seven weeks old male Sprague Dawley rats were used. Rats were separated into treatment groups such that body weights were similar among different groups. […] Standard of care group was orally administered macitentan at 30 mg/kg daily for 28 days. At day one, rats were subcutaneously administered either 40 mg/kg of monocrotaline or 5 mL/kg of saline. By the end of day 28, right ventricular systolic pressure (RVSP) was measured by right heart catheterization and RV hypertrophy was calculated by Fulton index as the weight ratio of RV and (LV+septum). In study 2, rats were subcutaneously administered either 60 mg/kg of monocrotaline or 5 mL/kg of saline. […] Body weight change from day 0-35 were used for general toxicity assessment and animal mortality was calculated by day 35.\n(§1) Rats were anesthetized with isoflurane and were kept at approximately 37° C. using a heated platform (Heated Hard Pad 1, Braintree Scientific) and circulating heated water pump (T/Pump Classic, Gaymar Industries). The neck area for each rat was prepared for surgery by depilating over the right common Carotid artery and right Jugular vein. An incision was made and the right Jugular vein was isolated with care as to not damage the Carotid artery and/or the Vagus nerve. […] The catheter was connected to pressure/volume instrument (MPVS-300, Millar Instruments, Inc.) that measured heart rate as well as both diastolic and systolic right ventricular pressures. […] Readings were quantified from a 60 second interval of the pressure tracing (following a 2 minute period of recording to allow for pressure stabilization). The parameters analyzed were right ventricular systolic pressures (RVSP), heart rate (HR) and rate of right ventricular pressure rise (dP/dt max).\nAfter the in vivo hemodynamic measurements, animals were euthanized by exsanguinations under anesthesia and then RV free wall, left ventricle (LV) and septum tissue were harvested and weighted. RV hypertrophy was calculated by Fulton index as the weight ratio of RV and (LV+septum). […]"}, "[3]": {"test_system": "hypoxia/sugen PAH mice", "format": "in vivo, mouse", "description": "For the second study (Study 2), 12 to 14 weeks old male C57/BL mice, (Taconic) were used for the studies. Mice were separated into treatment groups by weight such that starting body weights were similar among different groups. […] Mice in hypoxia chamber were given VEGF receptor inhibitor Sugen5146 at 20 mg/kg subcutaneously once a week for 6 weeks. The mice were administered antibodies starting on day 21 for 3 weeks as outlined in Table 12. By the end of week 6, right ventricular systolic pressure (RVSP) was measured by right heart catheterization and RV hypertrophy was calculated by Fulton index as the weight ratio of RV and (LV+septum). […]\nas §1, with “Mice” for “Rats”, “Industries).” for “Industries). The neck area for each rat was prepared for surgery by depilating over the right common Carotid artery and right Jugular vein. An incision was made and the right Jugular vein was isolated with care as to not damage the Carotid artery and/or the Vagus nerve.”, “max). […]” for “max).”"}, "[4]": {"conditions": "MCT 60 mg/kg rats, treatment from day 14, antibody SC twice per week, Macitentan 30 mg/kg daily gavage"}, "[5]": {"conditions": "Monocrotaline Rat - Prevention, dose mg/kg: H4H13145P 25, Macitentan 30, Sotatercept 25"}},
  "note": "Marks after values point to notes of the source that are not given here.",
  "data": [
    {"molecule": "B1", "values": [
      {"measurement": "Death # by day 35", "setting": "[1]; [4]", "value": 6},
      {"measurement": "Survival rate by day 35", "setting": "[1]; [4]", "value": 50, "unit": "%*#"},
      {"measurement": "median survival", "setting": "[1]; [4]", "value": 34, "unit": "days"},
      {"measurement": "survival", "setting": "[1]; monocrotaline 60 mg/kg, antibody 25 mg/kg 2 times a week from day 14, macitentan 30 mg/kg daily, day 35", "value": "significantly prolonged the survival time and improved mortality"},
      {"measurement": "% reduction in RV hypertrophy", "setting": "[2]; [5]", "value": "50-60%"},
      {"measurement": "Reduction in RVSP", "setting": "[2]; [5]", "value": 14, "unit": "mmHg"},
      {"measurement": "right ventricular systolic pressure elevation", "setting": "[2]; monocrotaline 40 mg/kg, antibody 25 mg/kg SC 2x/week, Macitentan 30 mg/kg P.O. daily, week 4", "value": "significantly reduced"},
      {"measurement": "right ventricular systolic pressure elevation", "setting": "[3]; 1, 3, 10 and 25 mg/kg SC 2x/week from day 21, week 6", "value": "significantly reduced"},
      {"measurement": "Reduction in RVSP", "setting": "[3]; Hypoxia/Sugen Mice - Therapeutic dose response, dose mg/kg: H4H13145P 1, Macitentan 30, REGN2176 25", "value": 6, "unit": "mmHg"}
    ]}
  ]
}
